Results from patent US20040072188A1 (Biogen, published 2004).

Assays:
hTACI:Fc = target: T1, hTACI:Fc (human, UniProt O14836 1-165, limits assumed); experiment: FACS competition: 200 ng/ml biotinylated BAFF preincubated with two-fold dilutions of the fusion protein, then BJAB cells
T1 construct: not shown: Fc
T1 sequence (looked up): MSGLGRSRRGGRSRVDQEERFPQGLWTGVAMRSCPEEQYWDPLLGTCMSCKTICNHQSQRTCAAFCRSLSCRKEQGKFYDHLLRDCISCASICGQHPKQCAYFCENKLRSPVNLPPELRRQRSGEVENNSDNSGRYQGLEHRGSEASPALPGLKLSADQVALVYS

[1] = target: T2, human TACI, full length, on transfected 293EBNA cells (CA336) (human, UniProt O14836 1-293); experiment: FACS on 293EBNA cells co-transfected with huTACI and GFP, SAV-PE
T2 construct: whole, on cells; also called huTACI
T2 sequence (looked up): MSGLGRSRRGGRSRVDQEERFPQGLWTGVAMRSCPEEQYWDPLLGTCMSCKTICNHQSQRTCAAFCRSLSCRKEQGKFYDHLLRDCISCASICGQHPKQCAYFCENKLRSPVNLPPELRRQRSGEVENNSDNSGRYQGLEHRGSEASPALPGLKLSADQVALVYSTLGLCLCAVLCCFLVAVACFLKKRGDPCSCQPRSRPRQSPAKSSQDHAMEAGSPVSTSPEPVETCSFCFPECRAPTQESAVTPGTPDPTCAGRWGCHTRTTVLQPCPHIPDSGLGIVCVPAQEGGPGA

- binding result (hTACI:Fc): binds
- binding result [1]: binds
B1: human recombinant soluble myc-BAFF (myc-huBAFF, […]) (ligand)
chain: not shown
modifications: biotinylated (sites not given) in the plate and FACS binding assays; not said to be biotinylated in the proliferation assay
notes: range […]; also called biotinylated myc-huBAFF; myc-hBAFF; not shown: myc tag
